This note sets out measurements from the supplement of paper PMC4604168 (melanoma cell lines).

Structures are written as SMILES. Some of the results follow. Most values come without repeats; read them as rough.
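Also: cell number obtained by counting DAPI-stained nuclei in high-throughput microscope images with image analysis software, screen run in 1,536-well plates.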

This experiment concerns MEL-HO. Kind of experiment: cell count relative to DMSO control; melanoma cells; higher = more viable cells. The settings on record: library dose: low library concentration; 72 h.
`Nc1ncn([C@H]2C[C@H](O)[C@@H](CO)O2)c(=O)n1` [decitabine] + COc1cc(Nc2ncc(F)c(Nc3ccc4c(n3)NC(=O)C(C)(C)O4)n2)cc(OC)c1OC [Tamatinib] (first compound 0.1 µM, partner dose 0.4 µM) showed a cell count of 77%. The compound `Nc1ccn([C@@H]2O[C@H](CO)[C@@H](O)C2(F)F)c(=O)n1` [gemcitabine] + Cc1ccc(NC(=O)c2cccc(N(C)C)c2)cc1NC(=O)c1ccc(O)cc1 [ZM336372] (first compound 0.0004 µM, partner dose 2 µM) returned a cell count of 78.8%. With `Nc1ncn([C@H]2C[C@H](O)[C@@H](CO)O2)c(=O)n1` [decitabine] + NCC(=O)Nc1ccc(-n2nc(C(F)(F)F)cc2-c2ccc3c(ccc4ccccc43)c2)cc1 [OSU03012] (first compound 0.1 µM, partner dose 1 µM) the figure was 80.1%.
